Measured values published in PubChem BioAssay AID1345083 (National Center for Advancing Translational Sciences (NCATS), 2018).
Hit rate of the full screen: of about 94,000 compounds, about 6,200 (6.6%) were called active. Inconclusive results, whose numbers are uncertain, are shown with a selection of clear calls. Calls follow the shape of the dose curve; as a rule, active = well fitted inhibition curve with a large enough effect; inconclusive = small, poorly fitted or top-dose-only effect; inactive = flat fitted curve, though single readings scatter. Where the call is inconclusive, the potency comes from a doubtful curve fit.

assay: Cytotoxic Profiling in HEK 293 Cell Line of Diverse Libraries Using Quantitative High-Throughput Screening; settings: HEK 293 viability, ATP luminescence (CellTiter-Glo), 48-72 h; series mostly up to 115 µM; also: nearly all actives have a fitted effect of over 60% in size
Procedure, shortened: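 Cells seeded first (HEK 293, 250 cells/well), then compound added by pintool. Incubation ran 48 or 72 hr at 37 degree Celsius. CellTiter-Glo was added and luminescence imaged after 10 min at room temperature.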
Potency is read from the fitted curve at half-maximal effect; tags tell the direction and shape of the fitted curve.

| SMILES | Potency |
| --- | --- |
| O=C([C@@H]1C[C@H](Oc2cccnc2)CN1C(=O)c1cccnc1)N1CCCC1 | inactive |
| COCCN1C(=O)c2ccccc2C(C(=O)Nc2nc3ccccc3[nH]2)C12CCCCC2 (stereo not drawn) | active: 79.4 µM |
| Cc1nc(C2CC2)ncc1C(=O)N(C/C=C/c1ccccc1)C1CC1 | inconclusive: 10 µM [inhibitor, partial curve, poor fit] |
| NC(=O)c1ccc(OC2CCN(C(=O)CCc3ccccc3)C2)nc1 (stereo not drawn) | inconclusive: 89.1 µM [inhibitor, single point] |
| CO[C@H]1C[C@@H](O)C12CCN(C(=O)CCc1ccc(-c3cccs3)o1)CC2 | active: 25.1 µM |
| CCOc1ccccc1C1NC(=O)N(CC(=O)Nc2ccc(F)c(Cl)c2)C2=C1C(=O)OC2 (stereo not drawn) | inconclusive: 79.4 µM [inhibitor, single point] |
| Cn1cc(-c2cnc3[nH]cc(CC(=O)NCc4ccc5c(c4)OCO5)c3c2)cn1 | inconclusive: 112 µM [inhibitor, partial curve] |
| COc1cccc(CN2CCOC[C@H](Oc3ccc(C(F)(F)F)cn3)C2)c1 | inconclusive: 100 µM [inhibitor, partial curve, poor fit] |
| O=C(Nc1ccnn1C1CCN(Cc2ccc(OC3CCCC3)cc2)CC1)C1CC1 | inconclusive: 56.2 µM [inhibitor, partial curve, poor fit] |
| O=C(CCC1CCN(Cc2cc3ccccc3o2)CC1)NC1CCN(Cc2ccccc2)C1 (stereo not drawn) | inconclusive: 89.1 µM [inhibitor, single point] |
| COc1ccnc(-c2nnc3ccc(N(C)CCN(C)C)nn23)c1 | inactive |
| Cc1ccc(C(=O)N2CCC(n3cnnc3-c3ccccc3)CC2)cc1F | inactive |
| O=C(Cc1ccc(OC(F)(F)F)cc1)N1CC(CNc2cccnc2)C2(C1)CN(c1ccccc1)C2 (stereo not drawn) | inconclusive: 44.7 µM [inhibitor, partial curve, poor fit] |
| Cc1cnc(CC2CCN(S(=O)(=O)c3ccc4c(c3)CCC4)CC2)n1CC1CC1 | inconclusive: 50.1 µM [inhibitor, partial curve, poor fit] |
| Cc1nccn1CCNC(=O)CCC[C@@H]1[C@H]2CCCN3CCC[C@@H](CN1Cc1ccccc1)[C@@H]23 | inactive |
| Cc1cccc(NC(=O)C2c3ccccc3C(=O)N(CC(C)C)C23CCCC3)n1 (stereo not drawn) | inconclusive: 100 µM [inhibitor, partial curve, poor fit] |
| CCOc1cccc(CN2CCC3(CC2)CN(C)CC3COC)c1 (stereo not drawn) | inconclusive: 50.1 µM [inhibitor, partial curve, poor fit] |
| Cc1cnc(C(=O)N2CC(Oc3ccccc3-c3nc(C4CC4)no3)C2)cn1 | inconclusive: 50.1 µM [inhibitor, partial curve, poor fit] |
| CC(C)(C)CC(=O)N1C[C@@H](CO)[C@@H]2Oc3c(F)cccc3[C@@H]21 | inconclusive: 89.1 µM [inhibitor, single point] |
| COc1ccc(-n2c(=O)[nH]c3cccnc32)cc1 | inactive |
| Cc1ccccc1N1CCN(C2CCCN(Cc3ccc(C#CC(C)(C)O)cc3)C2)CC1 (stereo not drawn) | inconclusive: 70.8 µM [inhibitor, partial curve, poor fit] |
| CC(=O)N1CCN(c2nc(-c3c(C)noc3C)cc3cc(CN(C)C)oc23)CC1 | inactive |

| SMILES | Potency |
| --- | --- |
| Cc1oc2c(c1C(=O)N1CCSCC1)CN(Cc1cccc(F)c1)CC2 | inactive |
| COc1cccc(CNC(=O)Cn2c(N(C)Cc3ccccc3)nc(C)cc2=O)c1OC | inconclusive: 31.6 µM [inhibitor, partial curve, poor fit] |
| COc1ncccc1Nc1ncc(-c2ccccc2)c2c1OCC2 | inconclusive: 35.5 µM [inhibitor, partial curve, poor fit] |
| COc1ccc(C(=O)N2CCC3(CC2)CC(O)CCO3)c(OC)c1 (stereo not drawn) | inactive |
| COCCCn1c(=O)c(C(=O)Nc2cccc(Cl)c2)nc2cccnc21 | inconclusive: 79.4 µM [inhibitor, partial curve, poor fit] |
| O=C(NCc1ccc2c(c1)OCO2)c1noc(-c2ccc(F)cc2)n1 | inconclusive: 89.1 µM [inhibitor, single point] |
| COc1ccc(-n2nc(C3CCCN([S+](=O)([O-])c4cccc(C(F)(F)F)c4)C3)[nH]c2=O)cc1 (stereo not drawn) | inconclusive: 44.7 µM [inhibitor, partial curve, poor fit] |
| OC1(CN2CCN(C/C=C/c3ccccc3)CC2)CNCCOC1 (stereo not drawn) | inactive |
| COc1ccccc1Nc1ncc2c(n1)CN([S+](=O)([O-])c1ccccc1)CCN2 | active: 100 µM |
| COc1cccc(C(=O)NC2CCN(c3nccc(Nc4ccc(C)cc4)n3)CC2)c1 | inconclusive: 44.7 µM [inhibitor, partial curve, poor fit] |
| O=S(=O)(Cc1ccccc1F)N1CCCC(Cc2noc(-c3cnccn3)n2)C1 (stereo not drawn) | inconclusive: 100 µM [inhibitor, single point] |
| Cn1ncc2c(C(=O)NCCCc3ccccc3)cc(-c3ccc(Cl)nc3)nc21 | inactive |
| CCC(=O)NCCC1CCN(C(=O)Nc2ccc(C)cc2)CC1 | inactive |
| COc1cccc(CN2C(=O)OC3(CCN(C(=O)Cc4ccccn4)CC3)C2(C)c2cccnc2)c1 (stereo not drawn) | inactive |
| COc1cc(NC(=O)Cn2c(-c3cnccn3)nc(C)c(C)c2=O)cc(OC)c1OC | inactive |
| O=C(c1ccc(F)cc1)N1CCCC(C(=O)N2CCC(N3CCCC3=O)CC2)C1 (stereo not drawn) | inactive |
| CC1=C[C@@H](CN2CCN(C)CC2)[C@H](C(C)C)C[C@H]1Cc1nnc(C)o1 | inconclusive: 112 µM [inhibitor, single point] |
| COCCC1(NC(=O)c2ccccc2)CCN(Cc2cn[nH]c2-c2cccs2)CC1 | inactive |
| Cc1cc(C)c(CNC(=O)c2cc(-c3ccc(CN(C)C)cc3)cc3ncn(C)c23)c(=O)[nH]1 | inactive |
| O=C(c1cccs1)N1CCC(O)(c2ccccc2)[C@H](N2CCCC2)C1 (stereo partly drawn) | inconclusive: 79.4 µM [inhibitor, partial curve] |
| COC(=O)c1ccc2nc(C[C@@H]3C[C@@H](C(C)C)[C@H](CN(C)C)C=C3C)[nH]c2c1 | inconclusive: 79.4 µM [inhibitor, partial curve, poor fit] |
